# Test results as given in publication PMC7819943, “Rice protein-binding microarrays: a tool to detect cis-acting elements near promoter regions in rice”.
# Some of the results follow.
# Biological target: T1, OsWOX13 (Oryza sativa, UniProt Q5QMM3 1-267)
# T1 sequence: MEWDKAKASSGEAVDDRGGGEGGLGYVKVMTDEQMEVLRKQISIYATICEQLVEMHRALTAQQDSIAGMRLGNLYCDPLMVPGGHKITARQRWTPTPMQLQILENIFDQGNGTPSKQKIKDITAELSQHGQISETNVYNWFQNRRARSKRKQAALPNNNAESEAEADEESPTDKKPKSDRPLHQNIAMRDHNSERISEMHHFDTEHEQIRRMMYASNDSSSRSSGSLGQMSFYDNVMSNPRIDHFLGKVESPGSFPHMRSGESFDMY
# Experiment: protein-binding microarray (RPBM); PBS, 2% BSA, 51.3 ng/ul salmon testes DNA, 50 uM zinc acetate, 200 nM TF, 25 C, 1 h; high values mean tight binding
# Conditions: protein: recombinant; tags: N-terminal polyhistidine and DsRed monomer fusion (pET32a); label: CyDye5-dUTP incorporated in the synthesized complementary strand; 3' TTTTT single-stranded linker to array surface; dsDNA, one strand shown
# Method in brief: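 The binding signal is fluorescence intensity per feature, in arbitrary units, read on an Axon 4000B scanner. Polyhistidine- and DsRed-tagged transcription factors (N-terminal fusions) from E. coli BL21-CodonPlus were purified on Ni–NTA and applied at 200 nM for 1 h at 25 °C to a double-stranded, BSA-blocked custom Agilent array in buffer with 50 µM zinc acetate.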
row,Sequence,binding signal
1,CCTAAACAGCACCCTGATTCTTCCATTAGATTGCTCCAATCGGAGTCACCTAGTGCAG,10000 fluorescence intensity (a.u.)
2,GGATTATGACGTTGCTAATTATGCGCCGTTGCTTTCATCCCGGAGTCACCTAGTGCAG,7750 fluorescence intensity (a.u.)
3,AATAAAATTATCACAAAATTATTGATTTTAAGGTTTAAATCGGAGTCACCTAGTGCAG,10100 fluorescence intensity (a.u.)
4,TTACTGGGAGAAATTTAATTAGCTGGATTCATATCACAGTCGGAGTCACCTAGTGCAG,4070 fluorescence intensity (a.u.)
5,TATTATTATTAATTATTAATAATAATCGGATAAAGTAACCCGGAGTCACCTAGTGCAG,16600 fluorescence intensity (a.u.)
6,GCCAACAATTAATCAAGTAGTACACTCACATGAGTCCTTGCGGAGTCACCTAGTGCAG,8250 fluorescence intensity (a.u.)
7,TACTGGTTGATTGTACACTTTGTCCTTGGATTTTACGGACCGGAGTCACCTAGTGCAG,11300 fluorescence intensity (a.u.)
8,TCAAACAGAGCCAATCAGCCAAGCTTGCTAGTACCATCTACGGAGTCACCTAGTGCAG,13300 fluorescence intensity (a.u.)
9,AATTGCCAAAATTTTGACAGAATTTCTTATGTATTGACTACGGAGTCACCTAGTGCAG,4100 fluorescence intensity (a.u.)
10,AAAATAAATTAATAATAATATGATTAAAATAGCCTTCACTCGGAGTCACCTAGTGCAG,14300 fluorescence intensity (a.u.)
11,TGTGCAATCAGATCGTAGATTAGATAAATAGTTTACGAGACGGAGTCACCTAGTGCAG,14000 fluorescence intensity (a.u.)
12,ACTGTTTCCTTTAATTTGACTCTGTCACAGTTGAGTTCTACGGAGTCACCTAGTGCAG,4770 fluorescence intensity (a.u.)
13,ATTCACGTTGGATTTGATTTTGTGCGTTAAATCAAAGTAGCGGAGTCACCTAGTGCAG,4430 fluorescence intensity (a.u.)
14,TTGATATAATAGAGAATTTTACCAAGAAATTAAAGCATCCCGGAGTCACCTAGTGCAG,5220 fluorescence intensity (a.u.)
15,ATAAATATGACTGACATGTGGGTCCCCACTGACACGTAGGCGGAGTCACCTAGTGCAG,15300 fluorescence intensity (a.u.)
16,CTTAATTATATATTTACCTACTTCTCCTCATGCATGAATCCGGAGTCACCTAGTGCAG,39100 fluorescence intensity (a.u.)
17,TCCAGCACCAATCAATAAATTGGTTTCAATACACTTTCCCCGGAGTCACCTAGTGCAG,15400 fluorescence intensity (a.u.)
18,TTTTAATTCTGAATTTTAACTATTTCTAAATTGTATTTCTCGGAGTCACCTAGTGCAG,4370 fluorescence intensity (a.u.)
19,TTGATTGGGAGGAAGCCAAGAAGAAGTCAAGAACTGCCCACGGAGTCACCTAGTGCAG,31900 fluorescence intensity (a.u.)
20,TGCCCTGTTACGGTTGACAGCTAATTACCTTGATTCGTTTCGGAGTCACCTAGTGCAG,11000 fluorescence intensity (a.u.)
21,TACAAATAAACAGAGGTTCAGTCACCAACAAATAATTGTGCGGAGTCACCTAGTGCAG,10600 fluorescence intensity (a.u.)
22,TGCTTATGTGATTATATCAAGGGAGGATTAGGGTTATAATCGGAGTCACCTAGTGCAG,7950 fluorescence intensity (a.u.)
23,GTTTTATTCAGAGAAAATTAATTAGATGTTACAGTGCAGTCGGAGTCACCTAGTGCAG,5210 fluorescence intensity (a.u.)
24,TTTGACAGGAGGTGTTACTGAAACCCCGTGCCCATACAAACGGAGTCACCTAGTGCAG,6840 fluorescence intensity (a.u.)
25,ACAAACTAATTATAATCAATATGAAGCAACCAATAATGGACGGAGTCACCTAGTGCAG,49200 fluorescence intensity (a.u.)
26,TTTTATAATTATATAGCACACCCCACTTCACACGCATATCCGGAGTCACCTAGTGCAG,15300 fluorescence intensity (a.u.)
27,CAATGATTAGCAAATTAACTATTGCCTTAACAACATTAATCGGAGTCACCTAGTGCAG,23300 fluorescence intensity (a.u.)

row,Sequence,binding signal
1,ATGATTTGACAATGTGGTGCTACAAACCTACAGTAAACATCGGAGTCACCTAGTGCAG,22700 fluorescence intensity (a.u.)
2,GAGACGAATCTTTTAAGCCTAATTAGTCCGTGATTAGCCACGGAGTCACCTAGTGCAG,8940 fluorescence intensity (a.u.)
3,AACAATAGACAATTGGATAATGGTTTTACCGTTGTAGTTACGGAGTCACCTAGTGCAG,6620 fluorescence intensity (a.u.)
4,GTTTTGTTTATTCTGATTACAGGATGTTCCTGACCTGGCCCGGAGTCACCTAGTGCAG,4620 fluorescence intensity (a.u.)
5,ACCATCAATCAATGGAGACAAACCTCTGCACCTCCTCCAACGGAGTCACCTAGTGCAG,18400 fluorescence intensity (a.u.)
6,TAATCATGATTTATATCTTATACATTTGTATACAAGTTTTCGGAGTCACCTAGTGCAG,5920 fluorescence intensity (a.u.)
7,CTGATTAAGTTAATAGCGTGTCACAAATGAGAACCTAGGTCGGAGTCACCTAGTGCAG,27900 fluorescence intensity (a.u.)
8,AAATAATTAAAATTATTAAAACAATGCATAACTTTTAAGCCGGAGTCACCTAGTGCAG,21200 fluorescence intensity (a.u.)
9,CTTCGATTGATCCGATCTCTCGTCTCGTCTCGTCCTCCCCCGGAGTCACCTAGTGCAG,17800 fluorescence intensity (a.u.)
10,GCACTAGTGATTGGAACAATATTAATTTCAGAAACATTGCCGGAGTCACCTAGTGCAG,32700 fluorescence intensity (a.u.)
11,AATGACAGGTTCTTGAGCTAACCAGATCACATTGTCTTTGCGGAGTCACCTAGTGCAG,6500 fluorescence intensity (a.u.)
12,CCAGGTGATTAATACCATATCATGAGTTGGCAATGCTGAACGGAGTCACCTAGTGCAG,22500 fluorescence intensity (a.u.)
13,AATAATTGGTTATAGCTTGTTGAGCAAAGGCCGAAATATTCGGAGTCACCTAGTGCAG,25900 fluorescence intensity (a.u.)
14,TGCCATCTAATGCCCTTGATTGAATTAATCATAGAGTCACCGGAGTCACCTAGTGCAG,41100 fluorescence intensity (a.u.)
15,TATTTAAATTATGGTGTTATAATATATGAATAAACAGTTTCGGAGTCACCTAGTGCAG,10200 fluorescence intensity (a.u.)
16,GATATGATGGGTACAAACTGTTATAAACTAACATGTCTATCGGAGTCACCTAGTGCAG,5970 fluorescence intensity (a.u.)
17,ACGGGTTAATTTTCAGGATCAGGCTTGACAAGTCTAGCATCGGAGTCACCTAGTGCAG,5380 fluorescence intensity (a.u.)
18,CGAGAATGGCTAAATGTCAATTTTCTCATGCTAGAGAGCCCGGAGTCACCTAGTGCAG,5140 fluorescence intensity (a.u.)
19,GCAGCCTACGTGACTTGATTATTAACGAGAATCCTGTGTCCGGAGTCACCTAGTGCAG,4190 fluorescence intensity (a.u.)
20,CAATAAATTTTAACTAGTGAACCTTTATCGGGTTACCACCCGGAGTCACCTAGTGCAG,5680 fluorescence intensity (a.u.)
21,CCGAGATTAATCGATTACTATTGGGTATGTGGTATCCATACGGAGTCACCTAGTGCAG,11400 fluorescence intensity (a.u.)
22,CAAAACCTGCACCTGATTGAACTACTCAATGAGGCTGTATCGGAGTCACCTAGTGCAG,21400 fluorescence intensity (a.u.)
23,AAAGGCAAATTTTGCCGATGATTGTTTGCTTATGCATCGCCGGAGTCACCTAGTGCAG,12000 fluorescence intensity (a.u.)
24,TTCTCCCATTTAATTACATAAGTTGGGTTTGAAGTAGAGTCGGAGTCACCTAGTGCAG,4940 fluorescence intensity (a.u.)
25,GTAGGTTGATTTTATGATTTGCGTTACATACATCCTTATTCGGAGTCACCTAGTGCAG,4570 fluorescence intensity (a.u.)
26,GGTGTGGTGGTGGTGGGGATGAGGAGCGCGATTGGGAGAGCGGAGTCACCTAGTGCAG,3190 fluorescence intensity (a.u.)
27,ATCTATAATTAGAGAATGTTTACTGTAGCATCACATAGGCCGGAGTCACCTAGTGCAG,24400 fluorescence intensity (a.u.)
